Data published in PubChem BioAssay AID270 (DTP/NCI, 2004).
Records with an inconclusive call do not appear. Not every entry of the source has a single result; some have several. They are shown here; other results are not. There may be further records. Values given together differ, and nothing given here explains why; dose, time, organism, isomer or construct need not be as stated for each record. Marks in square brackets tell the records apart. The letters are not those of the source and start again with each entry.

System: BDF1 mice, s.c. Lewis lung carcinoma, T/C %
Assay: NCI In Vivo Anticancer Drug Screen. Data for tumor model Lewis Lung Carcinoma (subcutaneous) in B6D2F1 (BDF1) mice
Protocol: The antitumor activity of compounds was measured in mice bearing transplantable tumors. Survival or tumor size were measured and the results are expressed as the measurement made in the treated group (T) divided by the measurement made in the vehicle treated control group (C). The tumor model used in this assay is Lewis Lung Carcinoma (subcutaneous) in B6D2F1 (BDF1) mice

`CC1CCC(NC(=O)N(CCCl)N=O)CC1` (stereo not drawn) was tested, and the T/C (endpoint: median survival time, dose: 4.0 mg/kg/injection, schedule: Q01DX001 (ip), vehicle: saline + alcohol, higher = longer survival) was 106 % of control and 156 % of control.

For `CC(CN1CC(=O)NC(=O)C1)N1CC(=O)NC(=O)C1` (stereo not drawn), the T/C (endpoint: median tumor weight (est.), dose: 7.0 mg/kg/injection, schedule: Q03HX032 (ip), vehicle: saline, higher = larger tumour) was 9 % of control and 47 % of control and the T/C (endpoint: median tumor weight (est.), dose: 45.0 mg/kg/injection, schedule: Q01DX011 (ip), vehicle: saline, higher = larger tumour) was 26 % of control and 67 % of control.

With `O=NN(CCCl)C(=O)NC1CCC(C(=O)O)CC1` (stereo not drawn) the T/C (endpoint: median survival time, dose: 45.0 mg/kg/injection, schedule: Q01DX001 (ip), vehicle: saline with Tween-80, higher = longer survival) was 115 % of control, 288 % of control [sample A] and 86 % of control [sample B].

`O=NN(CCCl)C(=O)NC1CCS(=O)(=O)CC1` was tested, and the T/C (endpoint: median survival time, dose: 5.0 mg/kg/injection, schedule: Q04DX004 (ip), vehicle: carboxymethylcellulose (CMC), higher = longer survival) was 105 % of control and 193 % of control.

For `CCOC(=O)C1CCC(NC(=O)N(CCCl)N=O)CC1` (stereo not drawn), the T/C (endpoint: median survival time, dose: 8.0 mg/kg/injection, schedule: Q04DX004 (ip), vehicle: gum acacia, higher = longer survival) was 103 % of control and 193 % of control.

For `O=NN(CCCl)C(=O)N[C@H]1CCCC[C@@H]1Cl`, the T/C (endpoint: median survival time, dose: 15.0 mg/kg/injection, schedule: Q04DX004 (ip), vehicle: gum acacia, higher = longer survival) was 104 % of control and 153 % of control, the T/C (endpoint: median survival time, dose: 27.0 mg/kg/injection, schedule: Q07DX002 (ip), vehicle: gum acacia, higher = longer survival) was 109 % of control and 151 % of control and the T/C (endpoint: median survival time, dose: 36.0 mg/kg/injection, schedule: Q07DX002 (ip), vehicle: gum acacia, higher = longer survival) was 112 % of control and 172 % of control.

With `O=NN(CCCl)C(=O)NC1CCC(NC(=O)N(CCCl)N=O)CC1` (stereo not drawn) the T/C (endpoint: median survival time, dose: 60.0 mg/kg/injection, schedule: Q04DX004 (ip), vehicle: saline with Tween-80, higher = longer survival) was 112 % of control and 171 % of control.

`O=NN(CCCl)C(=O)NCCCl` was tested, and the T/C (endpoint: median survival time, dose: 10.0 mg/kg/injection, schedule: Q01DX005 (ip), vehicle: saline + alcohol, higher = longer survival) was 95 % of control and 198 % of control and the T/C (endpoint: median survival time, dose: 40.0 mg/kg/injection, schedule: Q01DX001 (ip), vehicle: saline + alcohol, higher = longer survival) was 95 % of control, 105 % of control, 172 % of control.

`O=P1(N(CCCl)CCCl)NCCCO1` (stereo not drawn) was tested, and the T/C (endpoint: median survival time, dose: 30.0 mg/kg/injection, schedule: Q01DX005 (ip), vehicle: saline, higher = longer survival) was 113 % of control and 151 % of control.
